Measurements as given in PubChem BioAssay (NCATS).
This list was built around the results that the source calls inconclusive (neither active nor inactive); the mix of calls is not that of the screen. Where a call stands in place of a potency, no number is given. Where the call is inconclusive, the potency comes from a doubtful curve fit. Calls of active or inactive are those of the source. Calls come from the whole dose curve; as a rule, active = well fitted cell-killing curve with a large enough effect; inconclusive = small, poorly fitted or top-dose-only effect, or effect the other way; inactive = no such curve, though single readings can be large or run the other way.

test: Viability qHTS for spleen associated tyrosine kinase inhibitor (SYKi) naive MV4-11 cells (AID 1963823); settings: MV4-11 AML viability, CellTiter-Glo luminescence, 72 h; series mostly up to 45 µM; note: nearly all actives have a fitted effect of over 40% in size
Outline: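 Cells: MV4-11, SYK inhibitor naive, 500 per well. Treatment: library compounds, 72 hr, 37 C, 5% CO2. Read-out: CellTiter-Glo luminescence after 10 min RT.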
Potency is the fitted concentration of half-maximal effect; tags give direction and shape of the fitted curve.

Structure (SMILES)	Potency
C=C(C(=O)OC)C1C(O)CC2(C)C(=O)CCC(O)(CO)C2C1O (stereo not given)	inactive
CN1C(N)=N[C@](C)(c2cc(NC(=O)c3ccc(F)cn3)ccc2F)CS1(=O)=O	inactive
CC(/C=C1\SC(=S)N(CC(=O)O)C1=O)=C\c1ccccc1	inconclusive: 18.6 µM [cytotoxic, partial curve, poor fit]
CCOc1ccc(S(=O)(=O)N2CCCCCC2)c2ccccc12	inconclusive: 23.1 µM [cytotoxic, partial curve]
COc1cc2ncnc(Oc3cccc(NC(=O)Nc4cc(C(C)(C)C(F)(F)F)on4)c3)c2cc1OC	active: 0.164 µM
COc1ccc(CC2C(=O)NC(C)C(=O)N(C)C3Cc4ccc(cc4)Oc4cc(ccc4OC4OC(CO)C(O)C(O)C4O)CC(C(=O)NC(C)C(=O)NC(C)C(=O)N2C)N(C)C3=O)cc1 (stereo not given)	active: 0.0155 µM
CCCNC(C)(C)COC(=O)c1ccccc1	inactive
CCCCCCOc1cc2c(cc1N(C)c1ncc(C(=O)O)cn1)C(C)(C)CCC2(C)C	active: 23.1 µM
O=C(Nc1ccc(-c2ccc(Cl)c(Cl)c2)cc1)C1=C(O)c2ccccc2S(=O)(=O)N1	active: 20.6 µM
C=C[C@@]12COC(=O)C(=C)[C@@H]1[C@@H](O)[C@H](C(=C)C(=O)OC)[C@@H](O)C2	inactive
CC(Oc1ccc2[nH]nc(/C=C/c3cnn(CCO)c3)c2c1)c1c(Cl)cncc1Cl (stereo not given)	inconclusive: 0.013 µM [cytotoxic, full curve]
C=C1C(O)CC2C(C(=O)O)=COC(OC3OC(CO)C(O)C(O)C3OC(=O)/C=C\c3ccc(O)cc3)C12 (stereo not given)	inactive
C=C1C(=O)O[C@H]2C[C@@H](C)[C@@H]3CCC(=O)[C@@]3(C)C[C@H]12	active: 4.11 µM
Cc1cc(O)cc2c1O[C@](C)(CCC[C@H](C)CCC[C@H](C)CCCC(C)C)CC2	inactive
CN(N=O)C(=O)N[C@@H]1[C@@H](O)[C@H](O)[C@@H](CO)O[C@@H]1O	inactive
CCOC(=O)CCNc1cc(N2CCc3ccccc3CC2)nc(-c2cccnc2)n1	inactive
[2H]C([2H])([2H])C(OC(=O)[C@H](C)N[P@](=O)(OC[C@H]1O[C@@H](n2ccc(=O)[nH]c2=O)[C@](C)(F)[C@@H]1O)Oc1ccccc1)C([2H])([2H])[2H]	inconclusive: 20.6 µM [cytotoxic, single point]
CC(=O)c1c(O)cc(O[C@@H]2O[C@H](CO)[C@@H](O)[C@H](O)[C@H]2O)cc1O	inactive
CC(=O)O[C@@H]1C[C@@H](OC(C)=O)C(C)(C)/C=C/[C@H](C)[C@H](OC(C)=O)[C@@]2(O)C[C@H](C)[C@H](OC(=O)c3ccccc3)[C@@H]2/C=C/1C	active: 0.968 µM
COCC(c1ccc(C(F)(F)F)cc1)N1CCN(C2(C)CCN(C(=O)c3c(C)ncnc3C)CC2)CC1C (stereo not given)	inactive
